Among all 310,000 compounds or so, about 2,200 (0.71%) showed an effect of 50% or more. Effects have a minus sign here. The list shows a part of the results.
Target: human ether-à-go-go-related gene (hERG) potassium channel (human, UniProt Q12809)
Assay: primary screen, population patch clamp on CHO cells stably expressing hERG

Sequence of human ether-à-go-go-related gene (hERG) potassium channel (Q12809 whole entry, looked up): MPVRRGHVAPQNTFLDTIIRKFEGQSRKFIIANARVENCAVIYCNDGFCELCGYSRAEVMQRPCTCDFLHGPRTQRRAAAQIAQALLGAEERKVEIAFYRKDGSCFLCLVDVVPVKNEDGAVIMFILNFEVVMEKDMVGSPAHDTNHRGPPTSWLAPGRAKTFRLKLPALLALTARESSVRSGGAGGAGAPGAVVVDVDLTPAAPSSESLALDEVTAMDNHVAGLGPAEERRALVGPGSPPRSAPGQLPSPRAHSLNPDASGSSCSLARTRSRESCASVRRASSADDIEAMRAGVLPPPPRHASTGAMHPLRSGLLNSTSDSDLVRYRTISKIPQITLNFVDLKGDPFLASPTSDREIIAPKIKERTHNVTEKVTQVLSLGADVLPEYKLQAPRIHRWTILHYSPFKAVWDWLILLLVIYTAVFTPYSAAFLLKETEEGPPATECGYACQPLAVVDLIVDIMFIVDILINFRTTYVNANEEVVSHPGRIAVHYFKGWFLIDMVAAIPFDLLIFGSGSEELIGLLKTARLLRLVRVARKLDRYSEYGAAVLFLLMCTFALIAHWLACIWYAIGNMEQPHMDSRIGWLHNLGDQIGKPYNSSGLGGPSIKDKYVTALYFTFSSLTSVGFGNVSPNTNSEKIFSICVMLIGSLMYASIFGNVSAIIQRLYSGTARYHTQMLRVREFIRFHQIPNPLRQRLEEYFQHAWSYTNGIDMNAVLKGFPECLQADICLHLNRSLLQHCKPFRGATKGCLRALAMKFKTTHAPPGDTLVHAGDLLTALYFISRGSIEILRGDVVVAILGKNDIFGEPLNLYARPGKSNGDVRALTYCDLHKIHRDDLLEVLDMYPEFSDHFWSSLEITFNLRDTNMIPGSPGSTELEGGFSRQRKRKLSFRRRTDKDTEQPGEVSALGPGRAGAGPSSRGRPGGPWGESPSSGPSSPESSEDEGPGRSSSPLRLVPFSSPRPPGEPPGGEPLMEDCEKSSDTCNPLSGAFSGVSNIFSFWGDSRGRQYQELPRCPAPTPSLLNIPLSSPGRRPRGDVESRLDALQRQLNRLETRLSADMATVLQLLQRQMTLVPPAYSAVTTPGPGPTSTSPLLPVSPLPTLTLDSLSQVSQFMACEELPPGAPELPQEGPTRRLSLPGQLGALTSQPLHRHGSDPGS

Row | SMILES | hERG current change (%, negative = inhibition) at 1uM [%]
1 | CS(=O)(=O)N(CC(=O)N1CCC(C(N)=O)CC1)c1cc(C(F)(F)F)ccc1Cl | 14.5
2 | NC(=O)N/N=C/c1sc(N2CCCCC2)nc1-c1cccs1 | 2.09
3 | O=C(NCC(c1ccco1)N1CCCC1)c1ccc(Cl)cc1 (stereo not drawn) | -3.7
4 | O=C(CN1C(=O)c2cccc3cccc(c23)C1=O)N1CCCCC1 | 9.42
5 | CCOc1ccc(NC(=O)CC2C(=O)N(c3ccccc3)C(=O)N2CCc2cccs2)cc1 (stereo not drawn) | 8.68
6 | Cc1ccc(-n2nc3c(n2)/C(=N/O)CC/C3=N\O)cc1 | 5.06
7 | CCCOc1ccc2c3c(c(=O)oc2c1)CCCC3 | 0.385
8 | c1ccc(C2[C@H]3CN(Cc4cccnc4)[C@H](c4ccccc4)C34CC2(c2ccccc2)C4)cc1 (stereo partly drawn) | 0.165
9 | Cc1ccsc1C(=O)C1CCCN(Cc2cccc(OCCO)c2)C1 (stereo not drawn) | 0.385
10 | CCCCN(CCCC)Cc1ccc(C(=O)NN)o1 | 6.48
11 | CC(C)c1ccc(CN(C(=O)c2cccs2)C2CCS(=O)(=O)C2)cc1 (stereo not drawn) | -1.45
12 | COc1cc2[nH]c(=S)n(C3CCCC3)c(=O)c2cc1OC | 12.5
13 | C1COCCO1.Cc1onc(-c2ccccc2)c1C(=O)Nc1ccccc1C#N | 8.48
14 | O=S(=O)(/N=C(/Nc1ccccc1F)c1ccccc1)c1ccccc1 | 6.69
15 | CCN(CC)CCCOC(=O)C(c1ccccc1)c1ccccc1.Cl | -29.3
16 | CCC1C(=O)CC(c2ccccc2)NC1c1ccccc1 (stereo not drawn) | 5.67
17 | Cn1c(=O)c2c(SCc3ccccc3)nc(C3CC3)nc2n(C)c1=O | 3.04
18 | CC1CCC(n2c(=S)[nH]c3ccccc3c2=O)CC1 (stereo not drawn) | 3.99
19 | COc1ccc(NC(=O)CC2(CC(=O)O)CCCC2)cc1 | 14.2

Row | SMILES | hERG current change (%, negative = inhibition) at 1uM [%]
20 | CN(CCOc1ccc(Cl)cc1)C(=O)CN1C(=O)NC2(CCCC2)C1=O | 3.12
21 | CSc1ccccc1Sc1cc(C(=O)O)c2ccccc2n1 | 11.9
22 | CCn1c(C)[n+](CC)c2ccc(C(=O)N(C)c3ccccc3)cc21.[I-] | 25.5
23 | O=C(CCC(=O)N1CCSc2ccccc21)NCc1cccc(Cl)c1 | 2.96
24 | Cc1cc([N+](=O)[O-])nn1CC(=O)NCc1ccc(Cl)cc1 | 0.88
25 | COc1ccc(/C=C(/Sc2nnc(-c3ccc(Cl)cc3)o2)C(=O)O)cc1 | 10
26 | C=CCN(c1ccccc1)S(=O)(=O)c1cccc(C(=O)N2CCN(c3ncccn3)CC2)c1 | 0.212
27 | CC(C)(C)c1ccc(S(=O)(=O)N2CCN(CC(=O)NC(=O)NC3CCCCC3)CC2)cc1 | 11.1
28 | NNc1nc2c(Cl)ccc(Cl)c2s1 | 13.9
29 | COc1cccc(NC(=O)CNCc2ccccc2)c1.Cl | 21.7
30 | Cc1ccc(S(=O)(=O)NNC(=O)c2sc3nc(C)cc(C)c3c2-n2cccc2)cc1 | 10.6
31 | CCOc1ccc(C(=O)NNC(=O)c2cc(S(=O)(=O)N3CCOCC3)ccc2Cl)cc1 | 3.73
32 | CCN1CCN(Cc2oc(CO)cc(=O)c2O)CC1 | -4.58
33 | O=C(NCc1cccnc1)C1CCN(S(=O)(=O)N2CCC3(CC2)OCCO3)CC1 | 4.15
34 | COCc1cc(C)nc(SCC[N+](C)(C)CC(=O)Nc2ccccc2)c1C#N.[Cl-] | 7.03
35 | CCc1ccc(C(=O)NCc2cccs2)s1 | 2.67
36 | O=C(CC(=O)Nc1ccc(F)cc1)Nc1ccc(F)cc1 | 9.83
37 | CCc1ccc(/C=C2\SC(=S)N(CCC(=O)NCCCN3CCOCC3)C2=O)cc1 | 6.25
38 | O=C(CSc1nnc(-c2cccnc2)n1CCN1CCCCC1)Nc1cccc(Cl)c1 | -80.3

Row | SMILES | hERG current change (%, negative = inhibition) at 1uM [%]
39 | CNc1ncc(C(=O)c2ccccc2)s1 | -10.3
40 | CCc1ccccc1NC(=O)CCNS(=O)(=O)c1cc(Br)cnc1N | 0.979
41 | O=c1cc(N2CCN(c3ccccc3)CC2)[nH]c(=O)n1Cc1ccc(F)cc1 | -6.2
42 | CCOC(=O)c1sc(=NC(=O)c2ccc(S(=O)(=O)N3CC(C)OC(C)C3)cc2)n(C)c1C (stereo not drawn) | 5.26
43 | O=C(OCc1ccccc1)c1cccnc1Cl | 7.35
44 | Cc1cccc(OCCn2c(=O)oc3ccc(C)cc32)c1 | 9.97
45 | O=C(NCCCN1CCCC1=O)c1cc2nc(-c3ccco3)cc(C(F)(F)F)n2n1 | 12.2
46 | CCOc1cc(C(=O)Nc2cc(F)ccc2C)ccc1OCC(=O)N1CCOCC1 | 1.06
47 | CN1CCC23c4ccccc4NC1C21CCN(C)C3Nc2ccccc21 | 9.69
48 | Cc1ccc(Oc2ccc(NC(=O)CSc3n[nH]c(N)n3)cc2)cc1 | 7.85
49 | C/C(CC(=O)Nc1cccnc1)=N\NC(=O)c1ccc([N+](=O)[O-])c(Cl)c1 | -3.98
50 | COc1ccc(C(=O)NCCc2cnc[nH]2)cc1OC | 16.7
51 | COc1ccccc1/C=C/CN1CCCC(CO)(Cc2cccc(Cl)c2)C1 (stereo not drawn) | -1.86
52 | COc1ccc(C(=O)COC(=O)CCC(=O)Nc2ccc(C(C)=O)cc2)cc1 | 8.47
53 | CCOc1ccc(C(=O)NCC(=O)N2CCCCCCC2)cc1 | 2.6
54 | CCOc1ccc(NC(=O)CN(C2CCCCC2)S(C)(=O)=O)cc1 | 3.93
55 | COc1ccccc1-c1c(C#N)c(N)nc2c1CCc1ccccc1-2 | 25
56 | Clc1ccc(C2=Nn3c(nnc3-c3cccnc3)SC2)s1 | 3.58
57 | COc1ccc(CNC(=O)[C@H](CCSC)NC(=O)N2CCn3c2nc2ccccc23)cc1 | 12.2

Source: publication PMC4336329 (PLoS ONE, 2015)
